Measured values as given in the supplement of paper PMC10126150.
Values marked as one replicate rest on one cluster of the flow cell; about a third of the high ones do not repeat.

system: ATP; assay: switch fluorescence ratio, 500 uM ATP over buffer (Cy3 cluster intensity, sum of 5 cycles each) (fold (ratio)); higher = stronger signal-on switching upon ATP binding; sequences stand for … in TCGTCGGCAGCGTCAGATGTGTATAAGAGACAGTTTTTTTTTTTTTTTTTTTTTTTTT…TC; details: aptamer strand: ATP DNA aptamer (quencher-CACCTGGGGGAGTATTGCGGAGGAAGG + anchor), 100 nM annealed; ATP concentration: 500 uM; one replicate
In short: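 Between each of five buffer/ATP cycles, the flow-cell was stripped with NaOH and re-annealed. Each cycle imaged Cy3-labelled switching-strand clusters, annealed to 100 nM quencher-labelled ATP aptamer on a modified Illumina MiSeq flow-cell, first in selection buffer and then after 15 min with 500 uM ATP at 22 °C. The fluorescence ratio is summed target-cycle over summed buffer-cycle Cy3 intensity per cluster, averaged per switch-domain sequence, with clusters outside 100-1000 RFU excluded.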
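Also: ATP exposure 15 min at 22 °C before imaging.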

Sequence | switch fluorescence ratio
TGAATGTCAT | 0.997
TGAATGTCGG | 0.994
TGAATTATAC | 0.995
TGAATTCCTA | 0.973
TGAATTGCCA | 0.99
TGAATTGGCT | 1.02
TGAATTTATC | 0.982
TGAATTTCGG | 0.968
TGAATTTCT | 0.998
TGACAAAGCT | 1.05
TGACACATTG | 1
TGACACTGCG | 0.999
TGACAGAATT | 1.05
TGACAGCGAG | 1.02
TGACAGGAGA | 1.06
TGACATACCT | 1.38
TGACCCAGAT | 0.958
TGACGGCCCT | 1
TGACGGCTGT | 1.01
TGACTAGGAC | 1.1
TGACTAGTTG | 0.997
TGACTATTGA | 1.01
TGACTCATAG | 1.03
TGACTCCATT | 1.04
TGACTCGAAG | 1.02
TGACTGGGGG | 0.966

Sequence | switch fluorescence ratio
TGACTTAGCG | 1.05
TGACTTGTGG | 0.985
TGACTTTCGG | 0.984
TGACTTTCTG | 0.961
TGAGAAGCGC | 1.41
TGAGAAGGGC | 1.03
TGAGACCGCC | 0.997
TGAGACGTAT | 0.953
TGAGAGAATC | 1.03
TGAGAGACCC | 1.04
TGAGAGAGCA | 1.04
TGAGAGTTG | 0.99
TGAGATACGG | 1.01
TGAGATGGG | 1.01
TGAGATTCCC | 1
TGAGCAAGGA | 1.21
TGAGCACTTT | 0.997
TGAGCATCTG | 0.979
TGAGCGTCAG | 0.987
TGAGGAAGCG | 1.03
TGAGGACTTT | 0.962
TGAGGAGAGT | 0.973
TGAGGAGCT | 0.972
TGAGGATCAC | 1.07
TGAGGCCGTT | 0.954
TGAGGCCTGG | 1.03

Sequence | switch fluorescence ratio
TGAGGCGTTT | 1.01
TGAGGGAGTT | 1.01
TGAGGGCCAA | 0.999
TGAGGGCCTC | 0.982
TGAGGGTTAC | 1.04
TGAGGTCAAT | 1.02
TGAGGTTGAA | 0.952
TGAGGTTGTG | 1.09
TGAGTAAATT | 1.01
TGAGTACTAT | 1.01
TGAGTACTT | 1.03
TGAGTAGCAT | 0.979
TGAGTATGTT | 0.985
TGAGTCAAGA | 0.995
TGAGTCCCCA | 1.02
TGAGTCCGGG | 0.999
TGAGTCGCTG | 1.03
TGAGTCGGTT | 0.959
TGAGTTCCCT | 1.03
TGATACAAC | 1.04
TGATACGAGG | 1.03
TGATACGCGC | 1.08
TGATACGTTA | 1.02
TGATAGTCGT | 0.975
TGATCAACGT | 0.992
